The antibiotic and cytotoxicity screens of Wong et al. (2023)
Some of the results follow.

Test system: HSkMC (human skeletal muscle cells)
Experiment: cytotoxicity call (relative viability < 0.9)
Conditions: 10 µM

Compound	cytotoxicity call
C[C@H]1CN([C@@H](C)CO)C(=O)Cc2cc(NC(=O)Nc3cccc4ccccc34)ccc2O[C@@H]1CN(C)Cc1ccc(C(F)(F)F)cc1	inactive
C[C@@H]1CN([C@H](C)CO)C(=O)Cc2cc(NC(=O)Cn3cnnn3)ccc2O[C@@H]1CN(C)S(=O)(=O)c1cccs1	inactive
COc1ccc(OCCC(=O)NN)cc1	inactive
CCn1c(N)nc2c1c(=O)[nH]c(=O)n2C	inactive
C[C@@H]1CN([C@@H](C)CO)C(=O)c2cc(C#CC3CCCCC3)cnc2O[C@H]1CN(C)C(=O)c1ccncc1	inactive
C[C@@H]1CCCCO[C@@H](CN(C)CC2CCCCC2)[C@H](C)CN([C@H](C)CO)C(=O)c2cc(NC(=O)NC3CCCCC3)ccc2O1	inactive
C[C@@H]1CN([C@@H](C)CO)C(=O)c2cccc(NC(=O)Nc3cccc4ccccc34)c2O[C@H]1CN(C)CC1CC1	inactive
C[C@H]1CCCCO[C@H](CN(C)S(C)(=O)=O)[C@@H](C)CN([C@@H](C)CO)C(=O)c2cc(NC(=O)c3ccncc3)ccc2O1	inactive
CCC(=O)Nc1ccc(C)c(C)c1	inactive
C[C@H]1CN([C@@H](C)CO)C(=O)Cc2cc(NC(=O)Nc3ccc(C(F)(F)F)cc3)ccc2O[C@H]1CN(C)Cc1ccc2c(c1)OCO2	active
Cl.NCC(=O)CCC(=O)O	inactive
Cc1ccc(S(=O)(=O)Nc2ccc3c(c2)C(=O)N([C@H](C)CO)C[C@@H](C)[C@@H](CN(C)Cc2ccc(C(=O)O)cc2)OCCCC[C@H](C)O3)cc1	inactive

Test system: HepG2
Experiment: cytotoxicity call (relative viability < 0.9)
Conditions: 10 µM

Compound	cytotoxicity call
C[C@H]1CCCCO[C@@H](CN(C)Cc2ccc(C(F)(F)F)cc2)[C@@H](C)CN([C@@H](C)CO)C(=O)c2cc(NC(=O)NC3CCCCC3)ccc2O1	active
COc1ccc(CNC(=O)C[C@@H]2C[C@H]3c4cc(NC(=O)NC5CCCC5)ccc4O[C@H]3[C@H](CO)O2)cc1	inactive
CC(=O)N1C[C@H](O)C[C@H]1C(=O)O	inactive
C[C@H](O)C#Cc1cnc2c(c1)C(=O)N([C@@H](C)CO)C[C@@H](C)[C@@H](CN(C)C(=O)Nc1ccc(C(F)(F)F)cc1)O2	inactive
C[C@@H]1CN([C@@H](C)CO)C(=O)c2cc(NC(=O)NC3CCCCC3)ccc2O[C@@H](C)CCCCO[C@H]1CN(C)C(=O)c1ccccc1	inactive
CO[C@@]1(NC(=O)[C@@H](C(=O)O)c2ccc(O)cc2)C(=O)N2C(C(=O)O)=C(CSc3nnnn3C)CO[C@@H]21	inactive
O=C(C[C@@H]1C[C@H]2c3cc(NS(=O)(=O)c4ccc(F)cc4)ccc3O[C@H]2[C@H](CO)O1)NCc1ccccn1	inactive
C[C@@H]1CCCCO[C@@H](CN(C)C(=O)Nc2ccc(C(F)(F)F)cc2)[C@H](C)CN([C@H](C)CO)C(=O)c2cc(N(C)C)ccc2O1	active
CC(C)CC#Cc1ccc2c(c1)O[C@H](CN(C)C(=O)NC1CCCC1)[C@@H](C)CN([C@H](C)CO)S2(=O)=O	inactive
COc1ccc(S(=O)(=O)Nc2cccc3c2O[C@@H](CN(C)Cc2ccncc2)[C@H](C)CN([C@H](C)CO)C3=O)cc1	inactive
COCCOC(=O)N1C(=O)[C@@]2(c3cc(C#CCCO)ccc31)[C@H](c1ccc(O)cc1)N1[C@H](c3ccccc3)[C@H](c3ccccc3)OC(=O)[C@H]1[C@@H]2C(=O)NC[C@H](O)c1ccccc1	inactive
COc1ccc(CN(C)C[C@H]2OCCCC[C@@H](C)Oc3ccc(NC(=O)Nc4ccc(C(F)(F)F)cc4)cc3C(=O)N([C@@H](C)CO)C[C@H]2C)cc1	active
C[C@@H]1CN([C@H](C)CO)C(=O)c2cc(NC(=O)NC3CCCCC3)ccc2O[C@@H](C)CCCCO[C@H]1CN(C)C(=O)CCC(F)(F)F	inactive
COc1ccc(S(=O)(=O)Nc2ccc3c(c2)CC(=O)N([C@@H](C)CO)C[C@@H](C)[C@@H](CN(C)S(=O)(=O)c2cn(C)cn2)O3)cc1	inactive
COCCCNC(=O)[C@@]1(Sc2ccc(C)cc2)CC(=O)N(C2CCCCC2)[C@@H]1c1ccc(CO)cc1I	inactive
C[C@@H]1CCCCO[C@@H](CN(C)CC2CCCCC2)[C@@H](C)CN([C@H](C)CO)C(=O)c2cc(NC(=O)Nc3ccccc3)ccc2O1	active
COc1ccc(CN(C)C[C@H]2OCCCC[C@H](C)Oc3ccc(NC(=O)c4ccccc4)cc3C(=O)N([C@H](C)CO)C[C@@H]2C)cc1	inactive
O=c1[nH][nH]c(=O)c(Cl)c1Cl	inactive
